# Measurements published in the BET-seq Pho4 binding data (Le et al. 2018).
# Some of the results follow. Values were computed here from the reads of four pooled replicates and scatter widely.
# Target: T1, Pho4 (S. cerevisiae) (UniProt P07270)
# T1 sequence: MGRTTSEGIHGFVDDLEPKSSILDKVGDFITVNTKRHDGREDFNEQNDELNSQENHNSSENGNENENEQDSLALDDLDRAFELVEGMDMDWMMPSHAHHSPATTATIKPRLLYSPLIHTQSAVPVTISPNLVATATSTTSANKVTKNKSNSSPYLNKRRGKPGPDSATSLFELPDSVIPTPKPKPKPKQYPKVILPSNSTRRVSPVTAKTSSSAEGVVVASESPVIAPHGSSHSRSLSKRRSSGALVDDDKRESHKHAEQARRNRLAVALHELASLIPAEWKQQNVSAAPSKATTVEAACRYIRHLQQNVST
# Assay: relative binding free energy (BET-seq); higher = weaker binding
# Conditions: reference: library average
row,Sequence,relative binding free energy [kcal/mol]
1,TTTCACACGTGTGGTA,0.19
2,TAATACACGTGATAGG,0.18
3,AACGACACGTGAGGGT,0.24
4,TACTGCACGTGCTGTG,-0.07
5,ATTTGCACGTGATGCT,0.01
6,GTGGGCACGTGTGTTC,0.01
7,GGCATCACGTGGTTTA,0.11
8,TTGGTCACGTGTAAAG,0.19
9,GAGAACACGTGGGAGT,0.03
10,TATGGCACGTGCGAGC,-0.02
11,TGTCGCACGTGGCGTG,-0.09
12,TTGTACACGTGAGAGA,0.25
13,TTTAGCACGTGATACT,0.02
14,TTGGGCACGTGGAACA,-0.06
15,TGTGACACGTGTATCT,-0.09
16,GGGAGCACGTGTGCGC,-0.08
17,TTACACACGTGATGTG,0.06
18,GGAGGCACGTGCGTTA,-0.19
19,GGTTGCACGTGAGGAT,0.26
20,AAGATCACGTGGGGGA,-0.04
21,CTGCGCACGTGAGGGT,-0.01
22,TCTTTCACGTGTGCGG,0.38
23,GAGTGCACGTGTGTCT,0.16

row,Sequence,relative binding free energy [kcal/mol]
1,GGTAGCACGTGAGTTA,0.21
2,TTCGGCACGTGTTTTA,0.04
3,GTTCGCACGTGGGAGT,0
4,TATGTCACGTGCGGGC,0.2
5,ATATACACGTGTATAG,0.1
6,TTTAACACGTGAGTGA,0.15
7,TCAGACACGTGTGTTG,0.09
8,GTGTACACGTGAGTCG,0.16
9,ATAAGCACGTGTTGGT,-0.05
10,CGGTGCACGTGGTTGG,0
11,GGAATCACGTGTATGG,0.04
12,TTTCCCACGTGTTTGT,-0.13
13,CGGGACACGTGGGTGG,-0.11
14,TGTTACACGTGTAGCT,0.05
15,CAAGTCACGTGTATTG,0
16,GTTAACACGTGAGTAG,0.21
17,TTGGACACGTGCTTGG,0
18,TGGGCCACGTGTGGGG,0.01
19,ATGTTCACGTGTTATC,0.35
20,TCATTCACGTGGCGTG,0.16
21,TGAATCACGTGCTTTG,0.1
22,TAATGCACGTGTGAAG,0.04
23,GGGGACACGTGTTTTT,0.09

row,Sequence,relative binding free energy [kcal/mol]
1,TGATTCACGTGCGTCT,0.3
2,ATTATCACGTGTGGGC,0.05
3,CTGTTCACGTGGGCAG,0.08
4,GGGAACACGTGTCAGG,0.1
5,TTGATCACGTGTGGTG,0.21
6,GCAGTCACGTGGTTGT,0.15
7,CGTAGCACGTGGTGGG,-0.21
8,TAGGTCACGTGGTAGG,0.03
9,GTGTGCACGTGAAGTG,0.27
10,TGGAGCACGTGTGGGG,-0.08
11,CTCTGCACGTGTGGTG,-0.08
12,GGTACCACGTGTGGGT,0.05
13,ACGGTCACGTGTAGGA,0.17
14,TATTACACGTGGGGGC,0.02
15,CTTTGCACGTGGGTAT,-0.14
16,AAAGTCACGTGTTGGT,0.06
17,AATGTCACGTGTGGTA,0.19
18,ATCTGCACGTGGGGGT,-0.22
19,ATCGTCACGTGTCAGG,0.22
20,GGTCTCACGTGTCTTG,0.29
21,TGAAGCACGTGTATGA,-0.01
22,GTAGTCACGTGGCGTG,0.01
23,GATGGCACGTGTTGGG,0.08

row,Sequence,relative binding free energy [kcal/mol]
1,GTTGCCACGTGGGGAA,-0.22
2,GTGCGCACGTGTGGTT,0.09
3,GTGAGCACGTGGTGAC,-0.06
4,TAGCGCACGTGATGTT,-0.01
5,GGAGTCACGTGAGTCG,0.26
6,TCTTTCACGTGAGAAT,0.43
7,TAGTGCACGTGTCGGT,-0.03
8,TAATTCACGTGTAATG,0.32
9,TATATCACGTGCATAT,0.14
10,AGGCGCACGTGAAAGG,0.19
11,ATGTGCACGTGGTCCG,-0.14
12,GAGAGCACGTGGGAAG,-0.06
13,GGTTTCACGTGTGGGT,0.32
14,TGTTGCACGTGGCTCG,0
15,CAATTCACGTGTGTGT,0.15
16,GTTAGCACGTGTAGGG,0.07
17,GTGCGCACGTGGGGAA,-0.15
18,TGGTTCACGTGGGGCT,0.21
19,GGATACACGTGGGAAG,0.08
20,TAGCTCACGTGCGTGG,0.1
21,GATGACACGTGTGGAG,0.12
22,GGGTGCACGTGTGCGT,-0.04
23,CGCAGCACGTGTGTGG,-0.25

row,Sequence,relative binding free energy [kcal/mol]
1,AATGGCACGTGTGAAA,-0.03
2,ACGCGCACGTGGGGGG,-0.26
3,GAGTGCACGTGTTACG,0.09
4,AGTTACACGTGGTACT,-0.02
5,GGGGGCACGTGTGAGC,-0.04
6,TGCGTCACGTGGTGAT,0.07
7,TTCGACACGTGTGTAT,0.15
8,GGGCACACGTGTTATT,0.13
9,GAATTCACGTGTATGT,0.23
10,GATGTCACGTGTGAAT,0.14
11,GTGGACACGTGGTGAA,0.02
12,CTGTACACGTGGGCGT,-0.01
13,AAGATCACGTGGTGTA,0.08
14,TAGATCACGTGTGTTT,0.22
15,TCGGCCACGTGTTGGT,-0.05
16,TGGATCACGTGTAGTT,0.05
17,GCGGGCACGTGGGCGC,-0.24
18,GTATACACGTGTGAGA,0.17
19,AATTTCACGTGGAAGT,0.32
20,TGGAGCACGTGGGGTT,-0.07
21,TGGGACACGTGGCGGC,0.01
22,TGGATCACGTGATGGT,0.39
23,AAGGCCACGTGTTGGG,-0.06
